Results published in article PMC12136788.
This is one part of the list.

T1: UNK ZnF1-3 (human, UniProt Q9C0B0 31-174)
T1 sequence: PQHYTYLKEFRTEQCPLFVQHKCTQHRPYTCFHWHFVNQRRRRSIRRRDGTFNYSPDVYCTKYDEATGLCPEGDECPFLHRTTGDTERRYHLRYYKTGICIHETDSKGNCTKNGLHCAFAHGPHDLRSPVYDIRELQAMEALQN

B1: chr12:70442348:70442349:-_ENSMUSG00000020982_ENSMUST00000021368|mus_hu|FALSE|FALSE (ssRNA)
RNA: GGGAGUUCUACAGUCCGACGAUCAACAGGGUCUCCUUGAGCCUGGGCUUCUUUCACAAUUAACCCAAUUUCUGUCCAAUCUAUCUGGUUAGCUAAAGCACUUCGAACUACCUGAAUGGCUCUGUCAACUAUUUGUAGGUUCAUCAACAGAGGAUUGAGCAUCA
B2: chr1:66480114:66480115:+_ENSMUSG00000015222_ENSMUST00000024639|mus_hu|mus_mus_mus_hu_True|1_28 (ssRNA)
RNA: GGGAGUUCUACAGUCCGACGAUCUGGCCUGUGGCGGAUGUUCUUCAGAGAGCCACAUUUGGAUGUCACAUGGCUUAGGUCUAUUUUCUUGGUAACAAUUUGUACCUGACCCCCCUUAGGCUGGUAUUUGAUGUUGUCAGUUGACAACAGAGGAUUGAGCAUCA
B3: 82481400_82484211_767_CDS_ENSMUSG00000028403_ENSMUST00000030110|mouse|control|control (ssRNA)
RNA: GGGAGUUCUACAGUCCGACGAUCCAUCAGUGCGUAGCAAGUAAGCAGCUCAGUGUAGAAACACAACUGCAGAAAGAGCCAAUGGUUGUCUUCACCCACACAAUUGUUUAUCCAAGGACAGUGAUGGUCCAUCCUCCUGACGCACAACAGAGGAUUGAGCAUCA
B4: chr2:217001844:217001845:+_ENSG00000079246_ENST00000392132|hu_hu|hu_hu_hu_mus_False|1_58 (ssRNA)
RNA: GGGAGUUCUACAGUCCGACGAUCACCAACUUGAGGAUUAGAUCUUUUGUCAUAAGCAUAUCGGACGAUGGCGACCAUGUCUAAGUCAUCCAAAGCAUGAACGAGAGAGGAAAGGGCAACAGCUGCCGCCUCAUCAUCUCUUGCCAACAGAGGAUUGAGCAUCA
B5: chr12:48362563:48362564:+_ENSG00000134291_ENST00000256686|hu_hu|hu_hu_hu_mus_False|1_58 (ssRNA)
RNA: GGGAGUUCUACAGUCCGACGAUCUCCGUCAAGCCCUUCGAUAGACCCUUGCGGGGGAAACUGUAAUCACUUUGUAUUUCUAAAAAAAAGAAACGCCAAAAACUUUCCAAAAAGCGGGGGUGGGGUGAGGCGGGAGGUUGGGAACAACAGAGGAUUGAGCAUCA
B6: chr1:43162399:43162400:+_ENSG00000065978_ENST00000321358|hu_hu|FALSE|FALSE (ssRNA)
RNA: GGGAGUUCUACAGUCCGACGAUCAUUCUGGUAAUUUUGCUGGUAAUUGCGUGGAGGACCCCUACGACGUGGAUAGCGUCUAUAAUGGUUACGGUCUGCUGCAUAUUUACUGCCUUGAACUGGAACACCACCAGGACCUGUAACCAACAGAGGAUUGAGCAUCA

target: T1, UNK ZnF1-3; test: nsRBNS (natural sequence RNA bind-n-seq); RBNS binding buffer (assumed for nsRBNS): 25 mM Tris pH 7.5, 150 mM KCl, 3 mM MgCl2, 0.01% Triton X-100, 500 ug/ml BSA, 20 U/ml SUPERase-In, 4 C; UNK is unkempt and MSI1 is Musashi-1; names of the RNAs are library labels; protein concentration not given here; high values mean tight binding

For B1, which binding signal is on record?
Its binding signal is 0.564 enrichment R.

With B2 as the binder, how does the binding signal read?
The binding signal was 0.656 enrichment R.

Which binding signal does the source give for B3 here?
Its binding signal is 1.29 enrichment R.

With B4 as the binder, how does the binding signal read?
Its binding signal is 1.4 enrichment R.

Which binding signal does the source give for B5 here?
The binding signal was 1.89 enrichment R.

With B6 as the binder, how does the binding signal read?
Its binding signal is 0.828 enrichment R.
